± gives the standard error. Variants at the floor of the assay are shown more often than the library holds them.
B1: glmS ribozyme (parent)
chain: AUAAAAGCGCCAGAACUACAGAAAUGUAGUUGACGAGGAGGAGGUUUAUCGAAUUUUCGGCGGAUGCCUCCAAA

Experiments:
Settings in all cases: with glucosamine-6-phosphate
glucosamine-6-phosphate [1] = variants of: B1; assay: self-cleavage kobs at 640 uM GlcN6P; higher = faster cleavage; RNA array
How it was run: (§1)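 kobs was derived by fitting per-tile medians to one- or two-exponential decays after normalising signals to baseline and to non-cleaving reference variants. Those signals came from barcoded ribozyme variants transcribed in situ by E. coli RNA polymerase on sequenced MiSeq chips, followed through a hybridised Cy3 probe at 37 °C and imaged over ~14 h. Glucosamine-6-phosphate (40 μM to 10 mM) in HEPES/KCl/Mg(OAc)2 buffer was flowed in. Weighted Michaelis–Menten fits across concentrations then gave kcat and KM.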

glucosamine-6-phosphate [2] = variants of: B1; assay: self-cleavage kobs at 160 uM GlcN6P; higher = faster cleavage; RNA array
How it was run: as §1

glucosamine-6-phosphate [3] = variants of: B1; assay: self-cleavage kobs at 10000 uM GlcN6P; higher = faster cleavage; RNA array
How it was run: as §1

glucosamine-6-phosphate [4] = variants of: B1; assay: self-cleavage kobs at 2500 uM GlcN6P; higher = faster cleavage; RNA array
How it was run: as §1

| Variant | self-cleavage kobs at 640 uM GlcN6P (glucosamine-6-phosphate [1]) [s⁻¹] | self-cleavage kobs at 160 uM GlcN6P (glucosamine-6-phosphate [2]) [s⁻¹] | self-cleavage kobs at 10000 uM GlcN6P (glucosamine-6-phosphate [3]) [s⁻¹] | self-cleavage kobs at 2500 uM GlcN6P (glucosamine-6-phosphate [4]) [s⁻¹] |
| --- | --- | --- | --- | --- |
| G9C G51U | < 1e-05 | < 1e-05 | < 1e-05 |  |
| C10U G35U G51A | < 1e-05 |  |  |  |
| C10U A48C C50A | < 1e-05 |  |  | < 1e-05 |
| G9U G63C | < 1e-05 |  |  |  |
| C11A A53G G63A | < 1e-05 |  |  |  |
| G9A U54G | < 1e-05 | < 1e-05 |  |  |
| C10U G63C | < 1e-05 |  | < 1e-05 |  |
| G9A G32U A36G G44A | < 1e-05 |  |  | < 1e-05 |
| G7C C34A G43U G44U U46G | < 1e-05 |  |  |  |
| C8G A15U G51U C71U | < 1e-05 |  |  |  |
| G7C C34G A64U U69A | < 1e-05 |  |  | < 1e-05 |
| C8G G60C G63C C71A | < 1e-05 |  |  | < 1e-05 |
| C10G U31C G43A G44U C58A | < 1e-05 |  |  |  |
| C8U C50G G51A A64C | < 1e-05 |  |  |  |
| G9C A39C G41A U46C U55G | < 1e-05 | < 1e-05 |  |  |
| C10U G29A U31G | < 1e-05 | < 1e-05 | < 1e-05 |  |
| C10G U31C A48U C61A C70G | < 1e-05 | < 1e-05 |  |  |
| C10A U46A | < 1e-05 | < 1e-05 | < 1e-05 | < 1e-05 |
| C8A G37C G38A C70U | < 1e-05 |  |  |  |
| C10A C16U C67G | 0.000345 ± 0.00015 |  |  |  |
| C8G G13A A14G G32C | < 1e-05 |  |  |  |
| G9C G38C G62C C67U | < 1e-05 | < 1e-05 |  | < 1e-05 |
| G7U G29A C58A | < 1e-05 |  |  |  |
| G9U G29U U57C C68G | < 1e-05 | < 1e-05 |  |  |
| C8U C10A G62A | < 1e-05 | < 1e-05 |  |  |
| G7A U54A G60U C68A | < 1e-05 | < 1e-05 |  | < 1e-05 |
| C10A A12C U56A | 7.12e-05 ± 3e-05 |  | 0.00015 ± 2.7e-05 | 0.000306 ± 0.00011 |
| C8G C10G | < 1e-05 | < 1e-05 | < 1e-05 | < 1e-05 |
| C8G G35U A42U | < 1e-05 | < 1e-05 |  | < 1e-05 |
| C10G A48G U54G | < 1e-05 |  |  |  |
